The campaign covered roughly 110,000 compounds. About 40 (0.04%) were called active. Inconclusive means that the source gave no clear call. Such entries were picked first, then a sample of the others. The call rests on the fitted dose curve; in most records, active means well fitted curve in the direction sought with a large enough effect in the signal ratio (not every such curve was filed as active); inconclusive means small, poorly fitted or top-dose-only effect, or a change in a side signal; inactive means flat fitted curve, though single readings scatter; the % refers to the signal ratio. A potency beside an inconclusive call is a rough fit, not a confirmed value.
Assay: IkB Signaling;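 on IkBa stabilization activation: 0% = basal untreated cells and 100% = reference inhibitor full response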
Details: ABC-DLBCL IkBa-CBG/CBR dual luciferase ratio (green luciferase fused to IkBa over red control in OCI-Ly3 lymphoma cells), 4 h; IkBa stabilization activation: at 57.1 µM (top of the series), scaled: untreated 0%, proteasome inhibitor 100% unless noted
Summary of the method: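 Curves were fitted separately to fusion (green), unfused (red) and ratio luminescence, then classed by r2, magnitude and activity. Cells: OCI-Ly3, 4 h compound plus doxycycline at 37C; 10 uM MG-132 defined full response.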
For Cc1cn2c(=O)cc(COC(=O)c3ccc(NC(=O)c4ccccc4C)cc3)nc2s1, the IkBa stabilization activation was inconclusive: 3.06% [signal inhibitor].
In the case of Cc1ccccc1CS(=O)(=O)Cc1ccc(C(=O)NCCc2ccc(Cl)cc2)o1, the IkBa stabilization activation is reported as inconclusive: -0.16% [signal inhibitor].
For CCOC(=O)C1CCCN(c2c(C(=O)c3ccccc3)cnc3ccc(F)cc23)C1 (stereo not drawn), the IkBa stabilization activation was inconclusive: -0.806% [signal inhibitor].
In the case of O=C(CN(CCc1ccccc1)C(=O)CN1C(=O)COc2ccccc21)NCc1ccco1, the “IkBa stabilization activation” value is reported as inactive: 0.258%.
For O=C(CCS(=O)(=O)c1nc(-c2ccc3c(c2)OCO3)cc(C(F)(F)F)n1)Nc1ccc(Br)cc1, the Potency was inconclusive: 6.31 µM [signal inhibitor].
With CCCCN(CC)C(=O)c1c[nH]c2ccc(S(=O)(=O)N(C)c3ccc(Cl)cc3)cc2c1=O the IkBa stabilization activation was inconclusive: 2.77% [signal inhibitor].
With COc1cccc(-c2cc(C(=O)N3CCCc4ccccc43)no2)c1 the IkBa stabilization activation was inconclusive: 6.97% [signal inhibitor].
In the case of O=C1CC(c2c(F)cccc2Cl)c2c(ccc3ccccc23)N1 (stereo not drawn), the IkBa stabilization activation is reported as inconclusive: 9.61% [signal inhibitor].
With COc1ccc(C(=O)CSc2nnc(Cn3cnc4ccccc43)o2)cc1 the IkBa stabilization activation was inconclusive: 11.2% [signal inhibitor].
With COc1ccc(C(=O)Nc2ccc3nc4c(c(Nc5ccccc5OC)c3c2)CCCC4)c(OC)c1 the IkBa stabilization activation was inconclusive: -0.59% [signal inhibitor].
With O=C(CCn1nc(-c2ccccc2)c2ccccc2c1=O)N1CCN(c2ccccc2)CC1 the IkBa stabilization activation was inconclusive: -3.26% [signal inhibitor].
In the case of O=C(O)c1nnsc1-c1ccc(-c2snnc2C(=O)O)cc1, the IkBa stabilization activation is reported as inactive: 3.63% [at 11.4 µM, scaled: untreated 0%, proteasome inhibitor 100%].
With O=C(Cn1c(NCCO)nc2ccccc21)c1ccc(Cl)cc1 the IkBa stabilization activation was inconclusive: 5.25% [signal inhibitor].
With CCN(c1ccccc1C)S(=O)(=O)c1nnc(NC(=O)c2ccccc2C)s1 the “IkBa stabilization activation” value was inactive: -3.16%.
For CCOc1ccc(CN2CCN(Cc3ccc4c(c3)c3ccccc3n4CC)CC2)cc1, the IkBa stabilization activation was inconclusive: 18.6% [signal inhibitor].
For O=C(CCn1c(=O)c2ccccc2n(Cc2cccc(F)c2)c1=O)NCc1ccc2c(c1)OCO2, the “IkBa stabilization activation” value was inactive: 3.01%.
For CCOc1ccc(C(=O)/C=C/c2cn(CC(O)CN3CCc4ccccc43)c3ccccc23)cc1 (stereo not drawn), the IkBa stabilization activation was inconclusive: -0.371% [signal inhibitor].
In the case of CC(C)[C@]1(Cl)CC[C@@H]2[C@]3(C)CCC[C@@](C)(C(=O)O)[C@H]3C[C@H](Cl)[C@@]2(Cl)[C@H]1Cl, the IkBa stabilization activation is reported as inactive: 0.793% [at 11.4 µM, scaled: untreated 0%, proteasome inhibitor 100%].
In the case of NC(=O)c1ccccc1NC(=O)CS(=O)(=O)Cc1ccccc1, the “IkBa stabilization activation” value is reported as inactive: -3.02%.
For Cc1ccc(-c2c(C(=O)N3CCN(c4ccc(F)cc4)CC3)oc(=O)c3ccccc23)cc1, the IkBa stabilization activation was inconclusive: 2.12% [signal inhibitor].
With Cc1cc(C)cc(N2C(=O)N(Cc3cc(=O)n4ccccc4n3)c3ccccc3S2(=O)=O)c1 the IkBa stabilization activation was inconclusive: -2.05% [signal inhibitor].
With CCc1nn(CC(=O)NCc2ccc(C)cc2)c(=O)c2cc3occc3n12 the “IkBa stabilization activation” value was inactive: 1.32%.
With CCOC(=O)c1c(C)[nH]c(C(=O)COC(=O)C2CC2C)c1C (stereo not drawn) the “IkBa stabilization activation” value was inactive: 0.463%.
For CCOC(=O)c1sc2nc(N3CCOCC3)c3c(c2c1N)CC(C)(C)N(C)C3, the “IkBa stabilization activation” value was inactive: -3.99%.
For CC(C)Cn1c(N)c(C(=O)COC(=O)c2ccc3c(c2)OCCO3)c(=O)n(C)c1=O, the IkBa stabilization activation was inconclusive: 3.55% [signal inhibitor].
In the case of Cc1cccc2c1-c1sc(C(=O)NCCCN3CCN(c4ccccc4F)CC3)cc1CO2, the IkBa stabilization activation is reported as inconclusive: 0.207% [signal inhibitor].
With COc1cccc(NC(=O)c2c(C)nn(-c3cccc(C)c3)c2-n2cccc2)c1 the IkBa stabilization activation was inconclusive: 3.37% [signal inhibitor].
In the case of COC(=O)c1ccc2c(=O)n(CCCCCC(=O)NCCc3ccccc3)c(=O)[nH]c2c1, the “IkBa stabilization activation” value is reported as inactive: -1.48%.
For CCC1Sc2ccccc2N(CC(=O)NCc2ccc(C)cc2)C1=O (stereo not drawn), the IkBa stabilization activation was inconclusive: 1.32% [signal inhibitor].
For Cc1noc2ncnc(N3CCN(c4cccc(C(F)(F)F)c4)CC3)c12, the IkBa stabilization activation was inconclusive: -0.772% [signal inhibitor].
For COc1ccc(C)cc1-n1c(-c2ccc(Cl)cc2)cc2c1CC(C)(C)CC2=O, the IkBa stabilization activation was inconclusive: 1.74% [signal inhibitor].
In the case of c1cc(-c2nnc(-c3ccncc3)o2)ccn1, the “IkBa stabilization activation” value is reported as inactive: -3.27%.
For O=C1c2oc3ccccc3c(=O)c2C(c2cccnc2)N1Cc1ccco1 (stereo not drawn), the “IkBa stabilization activation” value was inactive: 4.21%.
For O=C(c1ccc(Cn2c(=O)[nH]c3ccccc3c2=O)cc1)N1CCN(c2ccccn2)CC1, the IkBa stabilization activation was inconclusive: 5.05% [signal inhibitor].
For CCc1ccccc1S(=O)(=O)Cc1ccc(C(=O)NCc2ccc3c(c2)OCO3)o1, the IkBa stabilization activation was inconclusive: 0.659% [signal inhibitor].
For COc1ccccc1-c1nnc2sc(COc3ccc(Cl)cc3)nn12, the IkBa stabilization activation was inconclusive: 4.37% [signal inhibitor].
With CC1(C)Oc2ccc3ccc(=O)oc3c2-c2cn[nH]c21 the IkBa stabilization activation was inconclusive: -6.21% [signal inhibitor].
In the case of Cn1c2ccc(F)cc2c2ncn(CCN3CCOCC3)c(=O)c21, the “IkBa stabilization activation” value is reported as inactive: -2.12%.
For Cc1ccccc1NC(=O)C(=O)NCC(c1ccc2c(c1)OCO2)N1CCN(c2ccccc2)CC1 (stereo not drawn), the IkBa stabilization activation was inconclusive: 1.89% [signal inhibitor].
In the case of CC(=O)Oc1ccc(N(C(C)=O)S(=O)(=O)c2cccs2)cc1, the “IkBa stabilization activation” value is reported as inactive: -1.38%.
For CCOc1ccc(C2C(C(=O)Nc3ccccc3)=C(C)Nc3nc(-c4ccccc4Cl)nn32)cc1OC (stereo not drawn), the IkBa stabilization activation was inconclusive: 7.31% [signal inhibitor].
With CCCn1cnc2cc(NCc3cccc(OC)c3)ccc21 the Potency was inconclusive: 15.8 µM [signal inhibitor, partial curve].
In the case of C=CCN(C(=O)CSc1nc2[nH]ncc2c(=O)n1-c1ccccc1OC)c1ccccc1, the IkBa stabilization activation is reported as inconclusive: 8.32% [signal inhibitor].
In the case of CCOc1ccc(Nc2cc(C)nc3nncn23)cc1, the IkBa stabilization activation is reported as inconclusive: 3.59% [signal inhibitor].
With COc1ccc2ccccc2c1C1CC(=O)N2CN(Cc3ccco3)CSC2=C1C#N (stereo not drawn) the IkBa stabilization activation was inconclusive: -0.0548% [signal inhibitor].
For CCC(C)NC(=O)c1cc(Sc2cccc(Cl)c2)nc2ccccc12 (stereo not drawn), the “IkBa stabilization activation” value was inactive: -0.0828%.
With CN(C)c1ccc(C(=O)OCC(=O)c2cccs2)cc1 the Potency was inconclusive: 25.1 µM [signal inhibitor, partial curve].
With Cc1nn(-c2ccc(F)cc2)c2nc(N)c(C#N)c(-c3cccs3)c12 the “IkBa stabilization activation” value was inactive: 4.36%.
For Cc1ccc(Cc2nc3ccccc3nc2SCC(=O)N2CCC(C)CC2)cc1, the IkBa stabilization activation was inconclusive: 0.801% [signal inhibitor].
In the case of Cc1ccc(NC(=O)Cn2c(=O)n(-c3ccc(C)cc3)c(=O)c3c2cnn3C)cc1, the “IkBa stabilization activation” value is reported as inactive: 2.1%.
For Cc1ccc(-n2nc(C)c3c(C)c(CCC(=O)NC(C)c4ccccc4)c(C)nc32)cc1 (stereo not drawn), the IkBa stabilization activation was inconclusive: -1% [signal inhibitor].
With O=C1CC(N2CCC(c3nc4ccccc4o3)CC2)C(=O)N1c1ccc(Cl)cc1 (stereo not drawn) the IkBa stabilization activation was inconclusive: 14.6% [signal inhibitor].
With CCN(CC)C(=O)c1cc(-c2ccc(Br)cc2)on1 the IkBa stabilization activation was inconclusive: 14.7% [signal inhibitor].
In the case of COc1cccc(C(=O)Nc2ccc3nc(SCC(=O)N(C)c4ccccc4)sc3c2)c1, the IkBa stabilization activation is reported as inconclusive: 6.11% [signal inhibitor].
With Cc1ccc(CNC(=O)c2ccc(CSc3nc4ccncc4n3Cc3ccc(C)cc3)cc2)cc1 the IkBa stabilization activation was inconclusive: -0.211% [signal inhibitor].
For COc1ccc(CCNC(=O)CCc2cn(Cc3ccccc3Cl)c3ccccc23)c(OC)c1, the IkBa stabilization activation was inconclusive: -0.118% [signal inhibitor].
For O=C(Nc1ccccc1)c1cccc(N2CCCC2=O)c1, the IkBa stabilization activation was inconclusive: 5.94% [signal inhibitor].
For Cc1cc(C)c(NC(=O)Cn2c(=O)oc3cc(S(=O)(=O)N4CCCCCC4)ccc32)c(C)c1, the IkBa stabilization activation was inconclusive: -1.31% [signal inhibitor].
For COc1ccc(F)cc1CN1CCN(c2cc(C)nc3c4c(C)cc(C)nc4nn23)CC1, the IkBa stabilization activation was inconclusive: 0.00558% [signal inhibitor].
For Cc1ccnc(NC(=O)Nc2ccc3c(c2)N(C)C(=O)CS3)c1, the IkBa stabilization activation was inconclusive: -0.98% [signal inhibitor].
For Cc1cc(Cl)ccc1-n1c(CCC(=O)O)ccc1-c1cccs1, the Potency was inconclusive: 12.6 µM [signal inhibitor].
With COC(=O)COc1ccc(-c2nnc(Nc3ccc(O)cc3)c3ccccc23)cc1 the Potency was inconclusive: 3.16 µM [signal inhibitor].
With Cc1cccc2c1-c1sc(C(=O)Nc3ccc(F)cc3F)cc1CO2 the Potency was inconclusive: 6.31 µM [signal inhibitor, partial curve].
In the case of O=c1c2sc3ccccc3c2n(Cc2cccc(F)c2)c(=O)n1CCc1ccccc1, the IkBa stabilization activation is reported as inconclusive: 4.67% [signal inhibitor].
For Cc1ccc(CNC(=O)c2ccc(N3CCCC3)c(NC(=O)Nc3ccc(C)cc3)c2)cc1, the “IkBa stabilization activation” value was inactive: 2.81%.
With Cc1c(C(=O)Nc2ccccc2)sc2nc(-c3ccccc3)cn12 the IkBa stabilization activation was inconclusive: 1.09% [signal inhibitor].
In the case of CCOc1ccc(N(C)C(=O)c2oc(=O)c3ccccc3c2-c2ccccc2)cc1, the IkBa stabilization activation is reported as inconclusive: 3.35% [signal inhibitor].
For COCc1cc(=O)n2[nH]c(-c3ccccc3)cc2n1, the Potency was inconclusive: 10 µM [signal inhibitor, partial curve].
Potency means the concentration at half of the fitted maximal effect.
